# From PubChem BioAssay AID504339 (National Center for Advancing Translational Sciences (NCATS), 2011)
# Screen size: about 390,000 compounds; about 17,000 (4.4%) were called active. This list was built around the results that the source calls inconclusive (neither active nor inactive); the mix of calls is not that of the screen. Calls come from the whole dose curve; as a rule, active = well fitted inhibition curve with a large enough effect; inconclusive = small, poorly fitted or top-dose-only effect; inactive = no such curve, though single readings can be large or run the other way. Potencies of inconclusive entries are doubtful fits and often do not repeat.
# Molecular target: Lysine-specific demethylase 4A (Homo sapiens) (UniProt O75164)
# Chain of UniProt O75164 (O75164 whole entry, looked up, the tested form may be a part): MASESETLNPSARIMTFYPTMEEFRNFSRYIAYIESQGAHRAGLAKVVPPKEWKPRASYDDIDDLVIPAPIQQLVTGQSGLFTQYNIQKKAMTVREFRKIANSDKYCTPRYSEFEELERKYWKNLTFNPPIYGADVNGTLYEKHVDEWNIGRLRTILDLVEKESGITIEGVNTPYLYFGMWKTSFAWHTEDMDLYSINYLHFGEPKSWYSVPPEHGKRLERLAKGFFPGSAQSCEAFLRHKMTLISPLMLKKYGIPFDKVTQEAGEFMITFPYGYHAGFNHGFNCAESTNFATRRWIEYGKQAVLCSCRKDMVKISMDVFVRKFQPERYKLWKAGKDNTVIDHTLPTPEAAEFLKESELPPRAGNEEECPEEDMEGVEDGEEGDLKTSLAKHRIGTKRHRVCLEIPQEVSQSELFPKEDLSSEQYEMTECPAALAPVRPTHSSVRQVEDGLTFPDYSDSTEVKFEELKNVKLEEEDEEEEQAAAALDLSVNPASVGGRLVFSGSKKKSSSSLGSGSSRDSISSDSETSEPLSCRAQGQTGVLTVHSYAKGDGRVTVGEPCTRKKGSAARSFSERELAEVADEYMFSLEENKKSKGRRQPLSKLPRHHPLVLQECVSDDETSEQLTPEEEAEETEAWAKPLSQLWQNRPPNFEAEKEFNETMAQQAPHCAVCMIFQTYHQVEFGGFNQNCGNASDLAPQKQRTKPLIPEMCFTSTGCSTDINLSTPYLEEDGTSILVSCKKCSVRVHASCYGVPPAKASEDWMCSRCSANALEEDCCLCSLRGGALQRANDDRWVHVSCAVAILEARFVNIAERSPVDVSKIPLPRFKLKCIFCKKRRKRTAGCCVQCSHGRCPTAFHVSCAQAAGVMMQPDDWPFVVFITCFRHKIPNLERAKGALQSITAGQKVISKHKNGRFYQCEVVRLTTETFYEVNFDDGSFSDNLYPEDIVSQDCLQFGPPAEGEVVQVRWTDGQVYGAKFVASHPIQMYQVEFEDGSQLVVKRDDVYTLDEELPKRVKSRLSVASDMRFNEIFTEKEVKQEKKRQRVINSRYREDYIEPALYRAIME
# Test: qHTS Assay for Inhibitors of JMJD2A-Tudor Domain; note: nearly all actives have a fitted effect of over 50% in size
# Settings: AlphaScreen JMJD2A-Tudor / H3K4me3 peptide binding; activity change, negative = inhibition: at 114 µM (top of the series)
# % is set by controls: 0 for no effect and ±100 for the full control effect; potency is the fitted concentration of half-maximal effect; tags give direction and shape of the fitted curve.
Compound,Potency,"activity change, negative = inhibition"
N#Cc1c(SCC(N)=O)nc2c(c1-c1ccncc1)CCCC2,"inconclusive: 35.5 µM [inhibitor, single point]",
Cc1noc(C)c1-c1ccc2ncnc(NCC3CCN(C)CC3)c2c1,"inconclusive: 79.4 µM [inhibitor, partial curve]",
CCCCCn1c2c(c(=N)c3ccccc31)CCC2,"inconclusive: 39.8 µM [inhibitor, single point]",
Cc1ccc(S(=O)(=O)N[C@H](C(=O)Oc2ccc3c(C(F)(F)F)cc(=O)oc3c2)c2ccccc2)cc1,active: 28.2 µM,
Cc1ccccc1C(=O)N(Cc1ccc(N(C)C)cc1)CC1CCCO1 (centres undefined),"inconclusive: 44.7 µM [inhibitor, partial curve]",
O=C(CCN1CCN(Cc2ccccc2)CC1)Nc1ccc(OCc2ccccc2)cc1,"inconclusive: 89.1 µM [inhibitor, single point]",
O=C(CSc1ncc(-c2ccc(F)cc2)n1Cc1ccco1)Nc1nccs1,,inactive: -13.6%
CSc1cccc(NC(=S)N(CCCN2CCCC(C)C2)Cc2cccs2)c1 (centres undefined),"inconclusive: 50.1 µM [inhibitor, partial curve]",
CC1(C)Cc2c(C#N)c(N)sc(=S)c2CS1,active: 50.1 µM,
CC[C@@H]1Cc2cc(O)ccc2C2=C1c1ccc(O)cc1C[C@H]2CC,"inconclusive: 50.1 µM [inhibitor, partial curve]",
CCCS(=O)(=O)c1c(S(=O)(=O)CCC)c2c(N)cccn2c1C(=O)c1ccc(OC)cc1,"inconclusive: 63.1 µM [inhibitor, partial curve]",
O=S(=O)(c1ccc2nc(N3CCN(c4ccccc4F)CC3)ccc2c1)N1CCCCC1,inactive,
Cc1ccc(C(=O)C(C)OC(=O)c2cc3cc([N+](=O)[O-])ccc3oc2=O)cc1 (centres undefined),"inconclusive: 39.8 µM [inhibitor, partial curve]",
FC(F)(F)c1ccccc1/C=N/n1c(C2CCCCC2)n[nH]c1=S,"inconclusive: 50.1 µM [inhibitor, partial curve]",
C=CCn1c(C)cc(C(=O)CN2NS(=O)(=O)c3ccccc3C2=O)c1C,"inconclusive: 79.4 µM [inhibitor, partial curve]",
COc1cccc(-c2nnc(NC(=O)C(C)C)o2)c1,"inconclusive: 89.1 µM [inhibitor, partial curve]",
Cc1nc(-n2nc(C)c(CCC(C)C)c2C)sc1C(=O)Nc1ccc(Cl)cc1,,inactive: 3.64%
O=C(C[n+]1cc(Br)cc2ccccc21)c1ccc(Cl)cc1,"inconclusive: 89.1 µM [inhibitor, partial curve]",
O=C(Nc1ccccc1C(=O)N/N=C/c1ccco1)c1ccc(F)cc1,"inconclusive: 70.8 µM [inhibitor, single point]",
